Measured values taken from the supplement of paper PMC3334620.
The full ranking holds about 33,000 sequences; the median of “E-score (-0.5 to 0.5)” is about -0.041, and the highest 2% start at about 0.37. The list shows a part of the results.

molecular target: T1, Ecm22 (UniProt Q05958); test: PBM E-score (8-mer binding enrichment) (E-score (-0.5 to 0.5)); higher = stronger / more preferred TF binding; most listed sequences are background and not binding sites; settings: protein concentration: 200 nM; construct: GST-full length
T1 sequence: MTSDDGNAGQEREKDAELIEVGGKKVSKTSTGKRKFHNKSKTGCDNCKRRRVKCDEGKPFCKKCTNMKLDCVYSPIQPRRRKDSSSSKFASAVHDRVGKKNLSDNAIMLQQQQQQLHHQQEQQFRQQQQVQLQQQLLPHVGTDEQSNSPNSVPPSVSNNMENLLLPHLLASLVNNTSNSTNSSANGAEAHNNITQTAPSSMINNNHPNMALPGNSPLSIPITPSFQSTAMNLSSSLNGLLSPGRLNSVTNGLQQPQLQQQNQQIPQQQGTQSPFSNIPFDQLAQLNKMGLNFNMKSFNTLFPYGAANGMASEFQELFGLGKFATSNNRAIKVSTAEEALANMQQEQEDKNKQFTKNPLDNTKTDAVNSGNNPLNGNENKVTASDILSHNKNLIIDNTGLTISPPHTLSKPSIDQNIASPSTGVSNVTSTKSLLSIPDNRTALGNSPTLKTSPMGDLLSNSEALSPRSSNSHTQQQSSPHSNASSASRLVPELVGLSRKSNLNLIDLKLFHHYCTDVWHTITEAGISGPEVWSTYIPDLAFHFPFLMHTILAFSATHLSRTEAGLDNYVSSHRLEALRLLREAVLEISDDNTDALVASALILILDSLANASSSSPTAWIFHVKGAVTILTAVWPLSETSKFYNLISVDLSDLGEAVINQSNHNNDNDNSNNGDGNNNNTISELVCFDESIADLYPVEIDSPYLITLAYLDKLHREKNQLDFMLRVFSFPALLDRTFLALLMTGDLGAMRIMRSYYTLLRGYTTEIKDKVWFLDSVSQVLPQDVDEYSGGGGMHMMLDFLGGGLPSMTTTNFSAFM
Method in brief: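 Bound GST-tagged yeast transcription factors, applied at about 100-200 nM to double-stranded universal all-10-mer Agilent arrays, were detected with fluorescent anti-GST. Scans were normalised with masliner. A modified Wilcoxon-Mann-Whitney statistic, the E-score, was assigned to each ungapped eight-base word pooled with its reverse complement by the Universal PBM Analysis Suite.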

| Sequence | PBM E-score |
| --- | --- |
| CGACGGGA | 0.227 |
| AGGGACCG | -0.0157 |
| AGATATCG | 0.0487 |
| CTCTTGAA | -0.239 |
| CACTGTGA | -0.0536 |
| AATTAGAC | -0.163 |
| ATGACTAG | -0.137 |
| ATCCGGCA | -0.101 |
| ATTGGTCA | -0.103 |
| AGGAGCGA | 0.328 |
| GCCCTCTA | -0.301 |
| AGCATAAT | 0.0723 |
| CAGTTACA | -0.0813 |
| AAAACATG | 0.0538 |
| ACGCTCAG | -0.112 |
| GCAGGGCA | -0.18 |
| CTCTCGAC | -0.151 |
| AGCTGATC | 0.00123 |
| GCGATTCA | 0.0973 |
| CGGTACAG | 0.0427 |
| CCGATCTC | -0.0283 |
| CGGTTAAG | 0.218 |
| AAGGACCT | -0.191 |
| AGTGAATC | -0.105 |
| GCAAGAGC | -0.188 |

| Sequence | PBM E-score |
| --- | --- |
| CACATCCG | 0.0343 |
| GAATCCCC | -0.196 |
| GCCAGTCA | -0.0828 |
| ACTCAGTC | -0.147 |
| CGATGACG | 0.0786 |
| ATACAACC | 0.0189 |
| ACCGATGA | 0.057 |
| ACTTGAAA | -0.0633 |
| CCCATTCA | -0.11 |
| CACGTAGA | -0.0914 |
| ATGGCCGC | -0.146 |
| AGGTTGTG | -0.284 |
| CGTTTGGC | 0.394 |
| GAACCCCA | -0.161 |
| CGACTAAC | 0.0876 |
| GCATACTA | -0.0263 |
| CCTACCAG | -0.147 |
| CCTAGCTA | -0.314 |
| CAGAAAGA | -0.0327 |
| CACATTTA | -0.276 |
| CCGGGTCA | -0.0203 |
| TGAAATCA | -0.0973 |
| GAGTTTGA | -0.0769 |
| ACCGTTAA | 0.246 |
| ACGGAAAC | 0.275 |

| Sequence | PBM E-score |
| --- | --- |
| CATATACG | 0.445 |
| ACCTGGCC | -0.122 |
| CGAGTGCC | 0.00958 |
| ATTTATCG | 0.164 |
| CCTGGGCG | -0.152 |
| GGAGCTCC | -0.395 |
| AACAAGGA | 0.00298 |
| GGTCGGCA | 0.0143 |
| ACATCTTC | -0.038 |
| AAGAGGCT | -0.268 |
| TCCCTAGA | -0.176 |
| GATCGCGC | 0.169 |
| CGTTCATA | 0.386 |
| CAACCTGA | -0.064 |
| CATGCCGC | 0.0956 |
| CACGATAA | 0.00212 |
| AGGTAAAC | 0.233 |
| AGCTCTAT | -0.113 |
| CGTGCAAG | 0.0627 |
| CATATCCG | 0.14 |
| GAATCCAC | -0.00795 |
| CAACGTGC | 0.0429 |
| AGCACCAT | -0.122 |
| CTCCGTCC | -0.139 |
| ATATAGCG | 0.0942 |

| Sequence | PBM E-score |
| --- | --- |
| GACAGCGA | 0.0982 |
| CTTAATTC | -0.0174 |
| GGATCACC | -0.117 |
| GTACGACA | 0.48 |
| ATCACCCA | -0.0985 |
| GGTTATTA | 0.118 |
| GGAATCCC | -0.15 |
| ACCTATTG | -0.0272 |
| GCGGCTCC | -0.189 |
| AGCACCCG | 0.0738 |
| CCGTGGCA | -0.136 |
| CGCTTAGC | 0.27 |
| ACGAATAT | 0.285 |
| GGGGCTTA | -0.3 |
| AGGGACAC | -0.0536 |
| CAGTCTGC | -0.111 |
| ACTTTAGA | -0.118 |
| AGCGACGC | 0.183 |
| AAACACCG | 0.14 |
| ACGATAGC | 0.311 |
| ACTTCACG | -0.0496 |
| ACGCATTC | -0.0053 |
| CACAGATA | -0.15 |
| AATTCCGC | 0.0231 |
| AAAAGCAT | 0.0251 |

| Sequence | PBM E-score |
| --- | --- |
| ATGACCAC | -0.145 |
| GTGCGGAA | 0.0503 |
| GATTCAAC | 0.0303 |
| GGACCATA | 0.0222 |
| GAGTTCGC | 0.105 |
| AGTGTATA | -0.0259 |
| CAATCTAA | 0.0234 |
| GCTAGTAA | -0.0786 |
| ACTCCAGG | -0.118 |
| AGGTTCAC | 0.0703 |
| AGCGAGCT | 0.309 |
| CGCGTGAG | 0.131 |
| AAACTACT | -0.105 |
| GACCGGTA | -0.173 |
| GAGGAGCC | -0.0571 |
| CCTAGCCC | -0.222 |
| AAAGATGT | -0.0546 |
| CGTTGATC | 0.156 |
| CACAGGCA | -0.0554 |
| AACGGAGA | 0.18 |
| ATATCGCG | 0.302 |
| CATTCACC | 0.0401 |
| CGTGCGTC | 0.151 |
| GGCAGTCA | -0.0846 |
| CAAGGCTG | -0.201 |

| Sequence | PBM E-score |
| --- | --- |
| CCTAAAAG | -0.201 |
| CAGGAAAG | -0.218 |
| GGTAACTA | 0.0246 |
| CGGCCGGC | -0.0878 |
| AACGTACA | 0.204 |
| ACTGTGGC | -0.169 |
| ACGCGTGA | 0.144 |
| AGCTGTCA | -0.0437 |
| AACGGCTC | 0.261 |
| CGCCTTAG | -0.19 |
| CTCCACTC | -0.162 |
| CGTTCGGA | 0.274 |
| CACAGGGA | -0.153 |
| CAGAAACC | -0.0626 |
| AACGCCCA | -0.0846 |
| CAGCCAAA | -0.0517 |
| CGCTTTCC | -0.0734 |
| AAGTGGTG | -0.0137 |
| CCGAGTCG | 0.163 |
| AACCTGCG | -0.0141 |
| TAACGGCA | 0.0107 |
| ACTCATGC | -0.0706 |
| ACTCTTAA | -0.106 |
| ACACTCAC | -0.0142 |
| GACTGGCC | -0.0693 |

| Sequence | PBM E-score |
| --- | --- |
| CCACGTGC | -0.0322 |
| AAGACTAC | -0.102 |
| GCATCAAA | -0.162 |
| ATAGACTA | -0.0832 |
| CCCACTAC | -0.161 |
| AAGCAAGT | -0.117 |
| CATCTACA | -0.0749 |
| ATCCAAGC | -0.231 |
| AACACGGG | 0.186 |
| GGGTCATA | -0.102 |
| CCGTAAGC | 0.142 |
| ACAAATCC | -0.159 |
| GTGGTCGA | -0.0123 |
| AGACGCAC | -0.0323 |
| AGATCCTA | -0.0686 |
| GGCGGCTA | -0.214 |
| CCTCGCCA | -0.0542 |
| TTCGAGAA | 0.149 |
| ACCCACGC | -0.108 |
| CACCTTGA | -0.181 |
| CCACGTGG | -0.0279 |
| GCCAGTAC | -0.094 |
